Experimental data reported in article PMC7904734, “ORP/Osh mediate cross-talk between ER-plasma membrane contact site components and plasma membrane SNAREs” (Cellular and Molecular Life Sciences: CMLS, 2020).
No constants are given. Whether binding was seen depends on the method and setting. Binding seen in cells or lysates may run through a third protein. Some entries that bind do so weakly or less than the wild type. For some of these results: Sequences can lack the tags named with a protein.

The chains behind the UniProt entries cited, without tags or fusion partners.
UniProt P40357: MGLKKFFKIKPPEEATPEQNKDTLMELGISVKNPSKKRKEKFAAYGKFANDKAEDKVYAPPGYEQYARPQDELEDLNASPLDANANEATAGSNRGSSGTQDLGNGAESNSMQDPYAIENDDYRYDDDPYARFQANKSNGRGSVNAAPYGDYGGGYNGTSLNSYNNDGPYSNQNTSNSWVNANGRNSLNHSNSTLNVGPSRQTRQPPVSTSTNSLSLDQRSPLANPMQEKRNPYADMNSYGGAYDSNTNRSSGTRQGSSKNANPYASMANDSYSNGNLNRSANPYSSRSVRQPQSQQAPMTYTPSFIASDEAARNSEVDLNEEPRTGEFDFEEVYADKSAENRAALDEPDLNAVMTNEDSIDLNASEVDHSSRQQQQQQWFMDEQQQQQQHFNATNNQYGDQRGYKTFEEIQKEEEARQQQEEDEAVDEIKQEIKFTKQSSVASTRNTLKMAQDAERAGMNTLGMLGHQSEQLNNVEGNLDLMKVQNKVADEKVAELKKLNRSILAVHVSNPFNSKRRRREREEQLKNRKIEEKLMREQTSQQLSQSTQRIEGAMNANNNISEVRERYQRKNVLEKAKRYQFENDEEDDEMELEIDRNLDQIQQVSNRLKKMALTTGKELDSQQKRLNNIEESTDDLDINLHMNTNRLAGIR
UniProt P60880: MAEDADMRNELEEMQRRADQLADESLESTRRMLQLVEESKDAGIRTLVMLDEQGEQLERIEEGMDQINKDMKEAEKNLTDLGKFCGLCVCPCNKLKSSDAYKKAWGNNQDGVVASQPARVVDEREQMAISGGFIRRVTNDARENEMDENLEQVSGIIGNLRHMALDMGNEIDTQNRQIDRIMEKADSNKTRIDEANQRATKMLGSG
UniProt P22214: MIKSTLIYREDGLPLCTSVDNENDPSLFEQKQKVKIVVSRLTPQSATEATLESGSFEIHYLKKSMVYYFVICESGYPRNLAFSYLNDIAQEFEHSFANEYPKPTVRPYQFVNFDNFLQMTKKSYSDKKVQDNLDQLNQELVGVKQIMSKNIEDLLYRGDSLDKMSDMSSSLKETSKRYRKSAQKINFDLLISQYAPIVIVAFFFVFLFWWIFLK

T1: YFP(C)·Scs2p (S. cerevisiae) (UniProt P40075)
T1 sequence: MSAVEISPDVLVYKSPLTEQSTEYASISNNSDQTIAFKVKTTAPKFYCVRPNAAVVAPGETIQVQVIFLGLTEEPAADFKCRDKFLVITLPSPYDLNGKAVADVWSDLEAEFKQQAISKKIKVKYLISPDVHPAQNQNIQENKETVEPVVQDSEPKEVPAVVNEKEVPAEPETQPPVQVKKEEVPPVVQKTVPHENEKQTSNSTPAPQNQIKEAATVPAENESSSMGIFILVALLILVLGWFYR

B1: YFP(N)·Osh1p (protein, UniProt P35845 1-1188)
chain: MEQPDLSSVAISKPLLKLKLLDALRQGSFPNLQDLLKKQFQPLDDPNVQQVLHLMLHYAVQVAPMAVIKEIVHHWVSTTNTTFLNIHLDLNERDSNGNTPLHIAAYQSRGDIVAFLLDQPTINDCVLNNSHLQAIEMCKNLNIAQMMQVKRSTYVAETAQEFRTAFNNRDFGHLESILSSPRNAELLDINGMDPETGDTVLHEFVKKRDVIMCRWLLEHGADPFKRDRKGKLPIELVRKVNENDTATNTKIAIDIELKKLLERATREQSVIDVTNNNLHEAPTYKGYLKKWTNFAQGYKLRWFILSSDGKLSYYIDQADTKNACRGSLNMSSCSLHLDSSEKLKFEIIGGNNGVIRWHLKGNHPIETNRWVWAIQGAIRYAKDREILLHNGPYSPSLALSHGLSSKVSNKENLHATSKRLTKSPHLSKSTLTQNDHDNDDDSTNNNNNKSNNDYDDNNNNNNNDDDDYDDDDESRPLIEPLPLISSRSQSLSEITPGPHSRKSTVSSTRAADIPSDDEGYSEDDSDDDGNSSYTMENGGENDGDEDLNAIYGPYIQKLHMLQRSISIELASLNELLQDKQQHDEYWNTVNTSIETVSEFFDKLNRLTSQREKRMIAQMTKQRDVNNVWIQSVKDLEMELVDKDEKLVALDKERKNLKKMLQKKLNNQPQVETEANEESDDANSMIKGSQESTNTLEEIVKFIEATKESDEDSDADEFFDAEEAASDKKANDSEDLTTNKETPANAKPQEEAPEDESLIVISSPQVEKKNQLLKEGSFVGYEDPVRTKLALDEDNRPKIGLWSVLKSMVGQDLTKLTLPVSFNEPTSLLQRVSEDIEYSHILDQAATFEDSSLRMLYVAAFTASMYASTTNRVSKPFNPLLGETFEYARTDGQYRFFTEQVSHHPPISATWTESPKWDFYGECNVDSSFNGRTFAVQHLGLWYITIRPDHNISVPEETYSWKKPNNTVIGILMGKPQVDNSGDVKVTNHTTGDYCMLHYKAHGWTSAGAYEVRGEVFNKDDKKLWVLGGHWNDSIYGKKVTARGGELTLDRIKTANSATGGPKLDGSKFLIWKANERPSVPFNLTSFALTLNALPPHLIPYLAPTDSRLRPDQRAMENGEYDKAAAEKHRVEVKQRAAKKEREQKGEEYRPKWFVQEEHPVTKSLYWKFNGEYWNKRKNHDFKDCADIF
B2: YFP(N)·Osh2p (protein, UniProt Q12451 1-1283)
chain: MSREDLSIAEDLNQVSKPLLKVKLLEVLGQGDFKHLKALVDNEFQPKDDPSVQQVLNLILHYAVQVAPILLIKEIVAHWVDQVGDEKSSSKSDDGIHLDLNYQDENGNTPLHLAAAQSRSDVISFLLSQKSINDCVKNKAHQQPLDMCKDLNVAQMIQLKRDDYFLETVHSLRAAMNKRDFSKLDSIWKNPRNLNLLDINGIDPETGTTLLYEYSQKKDIEMCQWLLKHGAEATVKDGKGRSPLDLVKNIKLPAKPSNNVTPEIKLKNLLEKNLREQAIVHEDVASSKPPTYKGFLKKWTNFAHGYKLRWFILSGDGNLSYYKDQSHVDRPRGTLKVSTCRLHIDSSEKLNFELLGGITGTTRWRLKGNHPIETTRWVNAIQSAIRFAKDKEILNKKKAVPPSLALKNKSPALISHSKTQGSLPEASQYYQHTLHKEVIQPSSVSLYRRPSNNLSVVSSEIQLNDNLTESGKRFVSKMIENRLDGSKTPVGVHTGSALQRVRSSNTLKSNRSMQSGSGVASPIDKVPNGANLSQSNTTTGSTASLSDNNYIDNFEGDEANSDDEEEDLGINFDRDEEYIKAQYGPYKEKLDMYEQAISIELSSLIELIEQEEPSPEVWLTIKKSLINTSTIFGKLKDLTYKRDKRLVDMVSKQGDVNNVWVQSVKELEMELSNKTERLASIDKERRGLKKILHKKLLESHATAGNKESLENDKEQESDTTASTLGQIAKFISATKEEDEASDADEFYDAAELVDEVTELTEAHPEISTAAAPKHAPPPVPNETDNDSQYVQDEKSKIESNVEKTSQKFEKQNNLVTEDEPKTDQSLKNFKAEDKESQVKEKTKEIASSVIGEKTIVAVTTVQKRKEEYLLKEGSYLGYEDGIRKRLSMDKDDRPKISLWAVLKSMVGKDMTRMTLPVTFNEPTSLLQRVAEDLEYSELLDQAATFEDSTLRTLYVAAFTASSYASTTKRVAKPFNPLLGETFEYSRPDKQYRFFTEQVSHHPPISATWTESPRWDFWGESFVDTKFNGRSFNVKHLGLWHIKLRPNDNEKEELYTWKKPNNTVIGILIGNPQVDNHGEVNVVNHTTGDHCKLYFKARGWRSSGAYEITGEVYNKKKQKVWILGGHWNEAIFAKKVVKDGDLSLEKTRTAASAGNGPTDDGTKFLIWKANDRPEEPFNLTPFAITLNAPQPHLLPWLPPTDTRLRPDQRAMEDGRYDEAGDEKFRVEEKQRAARRKREENNLEYHPQWFVRDTHPITKAKYWRYTGKYWVKRRDHDLKDCGDIF
B3: Venus(N)·ORP11 (protein, UniProt Q9BXB4 1-747)
chain: MQGGEPVSTMKVSESEGKLEGQATAVTPNKNSSCGGGISSSSSSRGGSAKGWQYSDHMENVYGYLMKYTNLVTGWQYRFFVLNNEAGLLEYFVNEQSRNQKPRGTLQLAGAVISPSDEDSHTFTVNAASGEQYKLRATDAKERQHWVSRLQICTQHHTEAIGKNNPPLKSRSFSLASSSNSPISQRRPSQNAISFFNVGHSKLQSLSKRTNLPPDHLVEVREMMSHAEGQQRDLIRRIECLPTSGHLSSLDQDLLMLKATSMATMNCLNDCFHILQLQHASHQKGSLPSGTTIEWLEPKISLSNHYKNGADQPFATDQSKPVAVPEEQPVAESGLLAREPEEINADDEIEDTCDHKEDDLGAVEEQRSVILHLLSQLKLGMDLTRVVLPTFILEKRSLLEMYADFMSHPDLFIAITNGATAEDRMIRFVEYYLTSFHEGRKGAIAKKPYNPIIGETFHCSWKMPKSEVASSVFSSSSTQGVTNHAPLSGESLTQVGSDCYTVRFVAEQVSHHPPVSGFYAECTERKMCVNAHVWTKSKFLGMSIGVTMVGEGILSLLEHGEEYTFSLPCAYARSILTVPWVELGGKVSVNCAKTGYSASITFHTKPFYGGKLHRVTAEVKHNITNTVVCRVQGEWNSVLEFTYSNGETKYVDLTKLAVTKKRVRPLEKQDPFESRRLWKNVTDSLRESEIDKATEHKHTLEERQRTEERHRTETGTPWKTKYFIKEGDGWVYHKPLWKIIPTTQPAE
B4: Venus(N)·ORP6 (protein, UniProt Q9BZF3 1-934)
chain: MSSDEKGISPAHKTSTPTHRSASSSTSSQRDSRQSIHILERTASSSTEPSVSRQLLEPEPVPLSKEADSWEIIEGLKIGQTNVQKPDKHEGFMLKKRKWPLKGWHKRFFVLDNGMLKYSKAPLDIQKGKVHGSIDVGLSVMSIKKKARRIDLDTEEHIYHLKVKSQDWFDAWVSKLRHHRLYRQNEIVRSPRDASFHIFPSTSTAESSPAANVSVMDGKMQPNSFPWQSPLPCSNSLPATCTTGQSKVAAWLQDSEEMDRCAEDLAHCQSNLVELSKLLQNLEILQRTQSAPNFTDMQANCVDISKKDKRVTRRWRTKSVSKDTKIQLQVPFSATMSPVRLHSSNPNLCADIEFQTPPSHLTDPLESSTDYTKLQEEFCLIAQKVHSLLKSAFNSIAIEKEKLKQMVSEQDHSKGHSTQMARLRQSLSQALNQNAELRSRLNRIHSESIICDQVVSVNIIPSPDEAGEQIHVSLPLSQQVANESRLSMSESVSEFFDAQEVLLSASSSENEASDDESYISDVSDNISEDNTSVADNISRQILNGELTGGAFRNGRRACLPAPCPDTSNINLWNILRNNIGKDLSKVSMPVELNEPLNTLQHLCEEMEYSELLDKASETDDPYERMVLVAAFAVSGYCSTYFRAGSKPFNPVLGETYECIREDKGFRFFSEQVSHHPPISACHCESKNFVFWQDIRWKNKFWGKSMEILPVGTLNVMLPKYGDYYVWNKVTTCIHNILSGRRWIEHYGEVTIRNTKSSVCICKLTFVKVNYWNSNMNEVQGVVIDQEGKAVYRLFGKWHEGLYCGVAPSAKCIWRPGSMPTNYELYYGFTRFAIELNELDPVLKDLLPPTDARFRPDQRFLEEGNLEAAASEKQRVEELQRSRRRYMEENNLEHIPKFFKKVIDANQREAWVSNDTYWELRKDPGFSKVDSPVLW
B5: Venus(N)·ORP7 (protein, UniProt Q9BZF2 1-842)
chain: MDFQERDPPFLPESAQSSKPSSAQQASELWEVVEEPRVRLGTEGVMPERQEGHLLKKRKWPLKGWHKRYFVLEDGILHYATTRQDITKGKLHGSIDVRLSVMSINKKAQRIDLDTEDNIYHLKIKSQDLFQSWVAQLRAHRLAHRLDMPRGSLPSTAHRKVPGAQLPTAATASALPGLGPREKVSSWLRDSDGLDRCSHELSECQGKLQELHRLLQSLESLHRIPSAPVIPTHQASVTTERPKKGKRTSRMWCTQSFAKDDTIGRVGRLHGSVPNLSRYLESRDSSGTRGLPPTDYAHLQRSFWALAQKVHSSLSSVLAALTMERDQLRDMHQGSELSRMGVSEASTGQRRLHSLSTSSDTTADSFSSLNPEEQEALYMKGRELTPQLSQTSILSLADSHTEFFDACEVLLSASSSENEGSEEEESCTSEITTSLSEEMLDLRGAERCQKGGCVPGRPMGPPRRRCLPAASGPGADVSLWNILRNNIGKDLSKVSMPVQLNEPLNTLQRLCEELEYSSLLDQASRIADPCERMVYIAAFAVSAYSSTYHRAGCKPFNPVLGETYECERPDRGFRFISEQVSHHPPISACHAESENFAFWQDMKWKNKFWGKSLEIVPVGTVNVSLPRFGDHFEWNKVTSCIHNVLSGQRWIEHYGEVLIRNTQDSSCHCKITFCKAKYWSSNVHEVQGAVLSRSGRVLHRLFGKWHEGLYRGPTPGGQCIWKPNSMPPDHERNFGFTQFALELNELTAELKRSLPSTDTRLRPDQRYLEEGNIQAAEAQKRRIEQLQRDRRKVMEENNIVHQARFFRRQTDSSGKEWWVTNNTYWRLRAEPGYGNMDGAVLW

Experiments:
[1] = target: T1, YFP(C)·Scs2p (S. cerevisiae); assay: split reporter; BiFC in living sec9-4 Δpep4 yeast cells (Y39) at the permissive temperature; Osh3p level restored
[2] = target: T1, YFP(C)·Scs2p (S. cerevisiae); assay: split reporter; BiFC of YFP(N) and YFP(C) fusions in living wild type yeast cells grown at 24 °C, fluorescence microscopy; also in exocytosis mutants other than sec9-4 and with OSH3 overexpression (signals enhanced)
[3] = target: T1, YFP(C)·Scs2p (S. cerevisiae); assay: split reporter; BiFC in living sec9-4 mutant yeast cells (Y6) at the permissive temperature; Osh proteins are degraded in this strain; YFP(C)·Sec9-4p used in place of YFP(C)·Sec9p
[4] = target: T1, YFP(C)·Scs2p (S. cerevisiae); assay: split reporter; BiFC of YFP(N) and YFP(C) fusions in living wild type yeast cells grown at 24 °C, fluorescence microscopy; also in exocytosis mutants other than sec9-4 and with OSH3 overexpression (signals enhanced); remark: listed apart in the source
[5] = target: YFP(C)·Sec9p (S. cerevisiae) (UniProt P40357); assay: as above
Venus(C)·SNAP-25 = Venus(C)·SNAP-25 (UniProt P60880); assay: split reporter; BiFC of Venus(N) and Venus(C) fusions in transfected HEK293 cells, fixed after 24 h; co-transfection marker mCherry or mCherry·ORP

Molecule | binding [4] | binding [5] | binding (Venus(C)·SNAP-25) | further results
YFP(N)·Sec22p (from UniProt P22214 1-214) |  |  |  | binding [1]: binds; binding [2]: binds; binding [3]: no binding (condition: in the sec9-4 mutant strain)
B1 | binds | binds |  | 
B2 | binds | binds |  | 
B3 |  |  | binds | 
B4 |  |  | no binding | 
B5 |  |  | no binding | 
